The campaign covered roughly 150,000 compounds. About 540 (0.36%) showed an effect of 50% or more. The list shows a part of the results.
Each compound was assayed on Plasmodium falciparum (assay: Primary screen in NF54 nanoGlo assay, in single point, at 2uM, 72h; a lower Z score goes with more inhibition). Details: timepoint 72 hour.
Assay type: functional, Erythrocyte

Structure (SMILES)	% Inhibition [%]	Z score
O=C(C1CCN(C(=O)C2(c3cccc(F)c3)CCC2)CC1)N1CCCC1	-2	0.25
CN(C(N)=NCC1(c2cc(F)cc(C(F)(F)F)c2)CC1)C1CC1	-1	0.13
Cc1cc(C)n([C@@H](C)C(=O)N2CCn3nc(Cc4ccccc4)cc3C2)n1	-10	1.67
Cc1ccc(OCCN2CCN(C(=O)N(C)C)[C@H]3CS(=O)(=O)C[C@H]32)c(C)c1	-3	0.42
O=C(CCN1CCOCC1)N1C[C@@H]2CC[C@H]1CN(Cc1cscn1)C2	-2	0.33
Cc1nc(C)c(CC(=O)N[C@H]2CCN(c3cnccn3)C[C@@H]2O)s1	-9	1.41
O=C(NCCN1CCN(c2nc(C3CC3)ns2)CC1)C1CCC1	5	-0.55
O=C1CC[C@H](NC(=O)c2cccc(OC(F)F)c2)CCN1	-3	0.52
Cc1ncc(S(C)(=O)=O)c(N2CCN(C(=O)c3cccs3)CC2)n1	3	-0.57
Cc1ccc2c(=O)c(-c3nc(-c4ccc(Cl)cc4)no3)cn(Cc3cccc(Br)c3)c2n1	-14	2.19
Cc1noc(CNC(=O)c2cc(-c3ccc(F)cc3)c[nH]2)n1	-2	0.3
CCC1CCCC1NC(=O)NCc1cn(C2CC2)c(=O)[nH]c1=O (stereo not drawn)	-4	0.42
O=C(N1CCO[C@H](c2cccnc2)C1)C1(N2CCCCC2)CCCCC1	-12	1.21
Cc1cccc2nc(N3CC[C@@](O)(CN(C)C)C3)oc12	-4	0.71
O=C(NCC1CCC1)c1ccc(OCc2ccccc2)cc1	-6	1.22
CNc1ncccc1C(=O)N(Cc1sccc1C)C1CCCC1	-6	0.71
CO[C@@H](CNc1nccnc1C#N)c1cccc(Cl)c1	-4	0.3
CCC(C)C(C(=O)O)N(C)S(=O)(=O)c1cccc(OC)c1F (stereo not drawn)	-22	2.26
CCOC(=O)c1nnsc1N1CCCCC1	-6	0.86
Cc1ccc(CN2CCc3c(cc(C(=O)NC(C)(C)C)n3C)C2)cc1	-7	1.16
Cc1[nH]c([C@@H]2CCCN2C(=O)Nc2ccc(Cl)cc2F)nc1-c1ccccc1	1	-0.23
N#Cc1ccc(N2CCCCCC2CC(O)c2ccccc2)nc1 (stereo not drawn)	-6	1.08
CCC[C@H]1CCN(C(=O)c2cc(-c3cn[nH]c3)nc3cc(Cl)ccc23)C1	0	0
Cc1cc(C)cc(C[C@H]2CC(=O)N(c3ccc4c(c3)OCCO4)C2=O)c1	-4	0.64
Cc1ccccc1NC(=O)Cn1nc2c3ccc(F)cc3ncn2c1=O	-6	0.94
COc1cc(CNc2noc(C)n2)cc(OC)c1OC	-10	1.83
CC[C@@](C)(CCO)NC(=O)C(=O)Nc1ccc(C#N)cc1	1	-0.18

Structure (SMILES)	% Inhibition [%]	Z score
OC1CC(c2cc(N[C@@H]3c4ccccc4C[C@@H]3O)ncn2)C1 (stereo partly drawn)	-11	1.59
COc1ccc(CNc2nc(N(C)C)nc3c2CCNCC3)c(OC)c1	-7	0.89
CCc1ccc(-c2cc(C(=O)Nc3ccc4c(c3)OCO4)c3ccccc3n2)s1	-15	2.51
CC[C@@H](C(=O)Nc1cccnc1)N(C)C	-6	1.18
C[C@@H](c1cccnc1)N(C(=O)CCCc1ccccn1)C1CC1	8	-1.03
COCCn1ccnc1[C@H]1N(c2cc(=O)n(C)c(=O)[nH]2)CC1(C)C	5	-0.89
C[C@@H]1[C@@H](c2cccc(F)c2)OCCN1C(=O)CCc1ccccc1C(=O)O	8	-0.93
O=C(OCCn1cccn1)c1cccc(F)c1Cl	-6	0.6
C=CCN1C[C@@H](C(=O)NCC2CCN(c3ccc(C)nn3)CC2)CC1=O	-6	0.85
O=C(CC[C@H]1CCC(=O)N1)NC1CCC2(CCCCC2)CC1	-13	1.96
CCN1CCN(C(=O)C2CCN(c3nnc(C)c4c(C)n(-c5ccc(C)cc5)nc34)CC2)CC1	-9	1.38
O=C1C2CCCCC2C(=O)N1CC(O)COCc1ccc2c(c1)OCO2 (stereo not drawn)	-5	0.7
CCOC(=O)c1nnsc1NC(=O)OC	-11	1.71
O=C(Cc1ccc(F)cc1)NC1(c2cccs2)CCCC1	9	-1.25
Cn1cc(CN2CCN3C(=O)N(C4CCCCC4)C[C@H]3C2)cn1	-13	2.54
CN(C)S(=O)(=O)Nc1cc(F)cc(F)c1	-7	1.26
O=C(NCCN1CCCCC1)[C@H]1CCCN(c2ccnc(-c3ccc(F)cc3)n2)C1	12	-2.23
Cc1cnc(NC(=O)CN2C(=O)[C@@H]3CCCN3C(=O)c3ccccc32)s1	4	-0.44
Cc1nc(-c2cccc(NC(=O)C3CN(c4nc5c(F)cccc5s4)C3)c2)cs1	-18	2.35
O=C(N[C@@H](CC(F)(F)F)C1CC1)c1ccn2nnnc2c1	2	-0.33
Cc1oc(C(C)C)nc1C(=O)N1CC(C(F)(F)F)C1	-7	1.19
Cc1nn(CCO)c(NCc2ccc(Br)o2)c1C	-17	2.23
CN(c1cccc(C(=O)NC[C@H]2CCCO2)c1)S(C)(=O)=O	-12	1.66
Cc1nnc(O)c(CNC(=O)COC2CCCC(C)C2)c1C (stereo not drawn)	34	-4.54
CCC(NC(=O)N1CCC[C@H]1CO)c1ccccc1Br (stereo partly drawn)	-6	1.13
COc1ccc(CNC(=O)c2ccc(-c3cccnc3)cc2)c(OC)c1	-7	0.91
Cc1ccc(-c2coc(-c3cccc(NC(=O)c4ccc(C(C)(C)C)cc4)c3)n2)cc1	2	-0.28
